Experimental data as given in the supplement of paper PMC3334620.
The full ranking holds about 33,000 sequences; the median of “E-score (-0.5 to 0.5)” is about -0.054, and the highest 2% start at about 0.39. This is one part of the list.

molecular target: Ylr278c (UniProt Q05854); test: PBM E-score (8-mer binding enrichment) (E-score (-0.5 to 0.5)); higher = stronger / more preferred TF binding; most listed sequences are background and not binding sites; settings: protein concentration: 200 nM; construct: GST-DNA-binding domain
Outline: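 E-scores (a modified Wilcoxon-Mann-Whitney statistic) were assigned by the Universal PBM Analysis Suite to every ungapped eight-base word pooled with its reverse complement. The input came from universal all-10-mer Agilent arrays made double-stranded by primer extension and probed with GST-tagged yeast transcription factors at about 100-200 nM. Fluorescent anti-GST detected bound protein, and masliner normalised the scans.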

| Sequence | PBM E-score |
| --- | --- |
| CCTTAGTC | -0.103 |
| TCGTTACA | -0.237 |
| GGTAGGGA | -0.0785 |
| AAGGCCGG | 0.434 |
| GCTTAGAA | -0.11 |
| AATCCATC | -0.141 |
| CTGTAGCA | -0.187 |
| TCGCTGCA | -0.143 |
| CTGGATTA | 0.218 |
| TTACACAA | -0.0144 |
| CTGTAGAC | -0.066 |
| ATACTCGA | -0.244 |
| CGCGCGCG | 0.226 |
| CACGGAAG | 0.228 |
| GAGCGCGA | 0.117 |
| AACGTAGC | -0.227 |
| ATGACTTA | -0.154 |
| GCTGCTCC | 0.167 |
| CGCCGTCA | 0.196 |
| TCCGCTAA | 0.267 |
| ACCCTTCT | -0.172 |
| CGCTGTAC | 0.164 |
| ACATGGGC | -0.0183 |
| TAGGCAGA | -0.0968 |
| GCTGGGCA | -0.184 |

| Sequence | PBM E-score |
| --- | --- |
| AGGTCCTC | 0.0208 |
| AGCGTGAA | -0.331 |
| GAGTGATC | -0.0431 |
| ATTTACGA | -0.0425 |
| ATCTGACC | 0.0465 |
| AAGACCGC | 0.173 |
| ACCAACTA | -0.106 |
| TCCGGAGA | 0.483 |
| CATCATCG | 0.0849 |
| CCACCTAG | -0.143 |
| ATGAACTA | -0.104 |
| GATGGTGC | -0.293 |
| AGGTGCTA | -0.138 |
| ATACGTGA | -0.23 |
| CCCAGCCA | -0.186 |
| ATGTCTAG | -0.299 |
| CCTCGGTA | -0.0307 |
| ACGTCTTC | -0.0827 |
| ACCTATGC | -0.125 |
| CGCGTTAG | -0.0029 |
| ACCCCAGC | 0.0351 |
| ATTACGAA | -0.0647 |
| CCCGACAG | 0.192 |
| ACGCAAAC | -0.192 |
| CGGCATAG | 0.202 |

| Sequence | PBM E-score |
| --- | --- |
| TATTTTAA | -0.0522 |
| CCCATCAG | -0.225 |
| AGGCCGGC | 0.342 |
| CCCGTTAG | 0.0463 |
| ATATGAAT | 0.0231 |
| TCTCAAGA | -0.0861 |
| CGTATGGC | -0.233 |
| GTCTTGGA | -0.0512 |
| CCGCGCCC | 0.191 |
| AAGAGTAC | -0.15 |
| AATAGAGC | -0.104 |
| GGCCCGGA | 0.395 |
| CGAGGTCA | -0.0727 |
| GCTCCCGA | 0.0641 |
| CAAAATCA | -0.0575 |
| CGGTGTAG | 0.163 |
| ATAGTACA | 0.027 |
| AGCTGCGC | -0.0223 |
| AGGGAAGG | -0.13 |
| TAAATCTA | -0.154 |
| CCATTCTC | 0.0544 |
| ACTTGCGC | -0.0351 |
| AAGCATCA | -0.102 |
| ACCACTTC | 0.0505 |
| AACGCAAT | -0.0137 |

| Sequence | PBM E-score |
| --- | --- |
| CGATACTC | 0.162 |
| CCGTGAGG | 0.0292 |
| CCCAGGCA | -0.238 |
| AGACGTAC | -0.118 |
| AACCTCTC | -0.149 |
| AACGGCCG | 0.257 |
| ACACCTAT | -0.161 |
| TGTTAGAA | -0.207 |
| GTAACTTA | -0.146 |
| GGTTTCAC | 0.0826 |
| GGCTGGGA | -0.0666 |
| GCCTCTCA | -0.058 |
| CATCCCGA | 0.262 |
| GTATAAAA | 0.241 |
| TCGTTAGA | -0.063 |
| CTGTTGGC | -0.148 |
| AGTTCTAT | -0.0585 |
| ATGCGGAG | 0.385 |
| ACAACATG | -0.136 |
| ACGAGTGA | -0.197 |
| AGTGACCA | -0.0629 |
| GGCGCGAA | 0.128 |
| GTGAACAC | -0.0874 |
| ATATATTA | -0.0697 |
| TCTTAGCA | -0.0944 |

| Sequence | PBM E-score |
| --- | --- |
| AGTAAGTG | -0.128 |
| CGCGCGAC | 0.154 |
| TCCGAACA | 0.429 |
| AAAGGGGA | -0.125 |
| ACACTGTG | -0.214 |
| ACACGCAC | -0.0819 |
| CAGAAGGG | -0.252 |
| GACACACA | -0.103 |
| ATCCGCCC | 0.291 |
| ACGCCACG | 0.0245 |
| CCGCCAGA | 0.107 |
| CACGCAAC | 0.0827 |
| AACACCTA | -0.251 |
| ACGGTCAC | -0.0537 |
| CCCATGCC | 0.119 |
| CAGCAGCC | -0.273 |
| CGTACCAC | -0.105 |
| GCTACCCC | -0.00088 |
| CCCACGAA | -0.118 |
| CTTAGGAC | -0.291 |
| TACTAGCA | -0.189 |
| AGTGTTTG | -0.121 |
| TCCAGTAA | -0.156 |
| AGCTACAC | -0.159 |
| CGGCTGAC | 0.136 |

| Sequence | PBM E-score |
| --- | --- |
| CTTCTCGC | 0.145 |
| ACGAATCG | 0.0123 |
| CGGTTGCA | -0.0906 |
| CGGAGCCG | 0.427 |
| GATACAGA | -0.0585 |
| AGCGAACG | -0.128 |
| ATTTCGCC | 0.193 |
| CGTTTCTA | -0.0853 |
| ATCATGAG | -0.164 |
| GATACCTA | -0.0272 |
| CATGCCAG | -0.19 |
| GTTCTCTA | -0.0525 |
| CGCTTAGA | -0.192 |
| GAAGGTGC | -0.0969 |
| AAACCCTT | -0.042 |
| GATATCTA | -0.268 |
| CATCGCCA | 0.0769 |
| ACGATGTC | -0.0905 |
| AGCGTTAT | -0.0958 |
| CCAAGATA | -0.0962 |
| AACTGGCC | 0.0711 |
| ACATTTAG | -0.304 |
| TCGATCGA | 0.112 |
| AATCCTGG | -0.0892 |
| GATAGGTA | 0.00262 |

| Sequence | PBM E-score |
| --- | --- |
| GCTCGCGA | 0.0526 |
| CGCCGTGC | 0.208 |
| AACCGATC | 0.0411 |
| GTCACATA | -0.0936 |
| CATCTCAC | -0.145 |
| CTCTCTCA | -0.176 |
| CTCCGGCC | 0.455 |
| CACACACC | 0.0916 |
| AAGGATTG | -0.126 |
| ACATCGTG | -0.117 |
| AGCACCAA | -0.0764 |
| CCATCCGC | 0.1 |
| AAGTTTGT | -0.0818 |
| CGGATCAC | 0.301 |
| GCCTTACA | -0.196 |
| AGACAGCC | -0.16 |
| TATACGGA | 0.235 |
| CCCTTTAA | -0.0852 |
| AAGTTCTC | 0.0789 |
| AGTAAGCG | -0.0246 |
| CCACCGTC | 0.0404 |
| TATGCTAA | -0.135 |
| AAGTACCG | 0.218 |
| CACGCCTG | -0.263 |
| CTGAACGA | -0.255 |

| Sequence | PBM E-score |
| --- | --- |
| ATGCCGTA | 0.0761 |
| CGCATTGC | 0.0491 |
| ATCGAAGA | 0.0299 |
| GCCCCCAC | -0.0702 |
| CTCCTCTC | -0.259 |
| TACAGCCA | -0.218 |
| TTCCACAA | 0.022 |
| CGTAATAA | -0.14 |
| ACGAGGAC | -0.0432 |
| CGCACTAA | 0.179 |
| CGTATCGC | 0.0729 |
| CCTCAAGG | -0.229 |
| TGGCGTAA | -0.219 |
| CAAGGCAG | -0.138 |
| AGGCGTGA | -0.279 |
| ATGCAGGC | -0.132 |
| CGATCCAC | -0.0458 |
| AAAGAGGC | -0.239 |
| ACTGACAC | -0.0424 |
| AAGGGAAT | -0.149 |
| ATTCCACC | 0.232 |
| GAGCCGAA | 0.204 |
| GATAAGCC | 0.00744 |
| CCGCTCCA | 0.064 |
| ACCCACCG | 0.127 |

| Sequence | PBM E-score |
| --- | --- |
| GTAATCAC | 0.00979 |
| AGCGCACA | -0.0352 |
| CACGCGTG | 0.115 |
| CCGATCAG | 0.272 |
| TACCCAGA | -0.202 |
| CGTAGTTA | -0.0635 |
| ATCGGGAA | 0.323 |
| CCCCGTTC | 0.129 |
| AACCGTAC | -0.252 |
| ACGTTAAT | 0.00772 |
| CACCGAAC | 0.102 |
| ATTCCTGG | -0.0751 |
| GCGGCCAA | 0.13 |
| GAAGGGGA | -0.102 |
| ATTACTAG | -0.0588 |
| ACATGGGA | 0.0284 |
| GGCTTGTA | -0.309 |
| CCCGTAAA | 0.0929 |
| AGGCTCCA | -0.133 |
